The results in this text go back to the supplement of paper PMC8728848.

This is one part of the list.

Common to all, as to assay: glycan array binding signal (z-score within array); higher = stronger binding
What all share (conditions): glycan notation: IUPAC condensed, linker removed

Assay [1] has as its target Gal(b1-4)GlcNAc(b1-3)Gal(b1-4)GlcNAc(b1-3)Gal(b1-4)GlcNAc(b1-3)Gal(b1-4)GlcNAc(b1-2)Man(a1-3)[Gal(b1-4)GlcNAc(b1-3)Gal(b1-4)GlcNAc(b1-3)Gal(b1-4)GlcNAc(b1-3)Gal(b1-4)GlcNAc(b1-2)Man(a1-6)]Man(b1-4)GlcNAc(b1-4)GlcNAc. The essentials: (§1)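 The binding signal is a Z-score computed within each array. Data were drawn from 3228 arrays in the Consortium for Functional Glycomics database, restricted to those with a known protein sequence. Scores were averaged over arrays of the same protein sequence at different concentrations or buffers, and over linkers, and negative values can be taken as non-binding.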

The target in assay [2] is Gal(b1-4)GlcNAc(b1-3)Gal(b1-4)GlcNAc(b1-3)Gal(b1-4)GlcNAc(b1-3)Gal(b1-4)GlcNAc(b1-2)Man(a1-3)[Gal(b1-4)GlcNAc(b1-3)Gal(b1-4)GlcNAc(b1-3)Gal(b1-4)GlcNAc(b1-3)Gal(b1-4)GlcNAc(b1-2)Man(a1-6)]Man(b1-4)GlcNAc(b1-4)[Fuc(a1-6)]GlcNAc. The essentials: as §1
The target in assay [3] is Gal(b1-4)GlcNAc(b1-3)Gal(b1-4)GlcNAc(b1-3)Gal(b1-4)GlcNAc(b1-3)Gal(b1-4)GlcNAc(b1-2)[Gal(b1-4)GlcNAc(b1-3)Gal(b1-4)GlcNAc(b1-3)Gal(b1-4)GlcNAc(b1-3)Gal(b1-4)GlcNAc(b1-6)]Man(a1-6)[Gal(b1-4)GlcNAc(b1-3)Gal(b1-4)GlcNAc(b1-3)Gal(b1-4)GlcNAc(b1-3)Gal(b1-4)GlcNAc(b1-2)Man(a1-3)]Man(b1-4)GlcNAc(b1-4)[Fuc(a1-6)]GlcNAc. The essentials: as §1
Assay [4] concerns the target Gal(b1-4)GlcNAc(b1-3)Gal(b1-4)GlcNAc(b1-3)Gal(b1-4)GlcNAc(b1-3)Gal(b1-4)GlcNAc(b1-3)Gal(b1-4)GlcNAc(b1-2)Man(a1-3)[Gal(b1-4)GlcNAc(b1-3)Gal(b1-4)GlcNAc(b1-3)Gal(b1-4)GlcNAc(b1-3)Gal(b1-4)GlcNAc(b1-3)Gal(b1-4)GlcNAc(b1-2)Man(a1-6)]Man(b1-4)GlcNAc(b1-4)GlcNAc. The essentials:
as §1

Assay [5] has as its target Gal(b1-4)GlcNAc(b1-3)Gal(b1-4)GlcNAc(b1-3)Gal(b1-4)GlcNAc(b1-3)Gal(b1-4)GlcNAc(b1-3)Gal(b1-4)GlcNAc(b1-2)Man(a1-3)[Gal(b1-4)GlcNAc(b1-3)Gal(b1-4)GlcNAc(b1-3)Gal(b1-4)GlcNAc(b1-3)Gal(b1-4)GlcNAc(b1-3)Gal(b1-4)GlcNAc(b1-2)Man(a1-6)]Man(b1-4)GlcNAc(b1-4)[Fuc(a1-6)]GlcNAc. Summed up:
as §1

In assay [6] the target is Gal(b1-4)GlcNAc(b1-3)Gal(b1-4)GlcNAc(b1-3)Gal(b1-4)GlcNAc(b1-3)Gal(b1-4)GlcNAc(b1-3)Gal(b1-4)GlcNAc(b1-2)[Gal(b1-4)GlcNAc(b1-3)Gal(b1-4)GlcNAc(b1-3)Gal(b1-4)GlcNAc(b1-3)Gal(b1-4)GlcNAc(b1-3)Gal(b1-4)GlcNAc(b1-6)]Man(a1-6)[Gal(b1-4)GlcNAc(b1-3)Gal(b1-4)GlcNAc(b1-3)Gal(b1-4)GlcNAc(b1-3)Gal(b1-4)GlcNAc(b1-3)Gal(b1-4)GlcNAc(b1-2)Man(a1-3)]Man(b1-4)GlcNAc(b1-4)[Fuc(a1-6)]GlcNAc. The essentials:
as §1

The target of assay [7] is Gal(b1-4)GlcNAc(b1-3)Gal(b1-4)GlcNAc(b1-3)Gal(b1-4)GlcNAc(b1-3)Gal(b1-4)GlcNAc(b1-3)Gal(b1-4)GlcNAc(b1-3)Gal(b1-4)GlcNAc(b1-2)Man(a1-3)[Gal(b1-4)GlcNAc(b1-3)Gal(b1-4)GlcNAc(b1-3)Gal(b1-4)GlcNAc(b1-3)Gal(b1-4)GlcNAc(b1-3)Gal(b1-4)GlcNAc(b1-3)Gal(b1-4)GlcNAc(b1-2)Man(a1-6)]Man(b1-4)GlcNAc(b1-4)GlcNAc. Summed up:
as §1

Assay [8] addresses Gal(b1-4)GlcNAc(b1-3)Gal(b1-4)GlcNAc(b1-3)GalNAc. Summed up: as §1
Assay [9] has as its target Gal(b1-4)GlcNAc(b1-3)Gal(b1-4)GlcNAc(b1-3)[Gal(b1-4)GlcNAc(b1-3)Gal(b1-4)GlcNAc(b1-6)]GalNAc. Summed up: as §1
Assay [10] concerns the target Gal(b1-4)GlcNAc(b1-3)Gal(b1-4)GlcNAc(b1-6)[Gal(b1-3)]GalNAc. Summed up: as §1
For assay [11], the target named is Gal(b1-4)GlcNAc(b1-3)Gal(b1-4)[Fuc(a1-3)]GlcNAc(b1-3)Gal(b1-4)[Fuc(a1-3)]GlcNAc. Summed up: as §1
Assay [12] addresses Gal(b1-4)GlcNAc(b1-3)GalNAc. The essentials:
as §1

The target in assay [13] is Gal(b1-4)GlcNAc(b1-3)[Fuc(a1-3)GlcNAc(b1-6)]Gal(b1-4)Glc. The essentials: as §1
Assay [14] deals with Gal(b1-4)GlcNAc(b1-3)[Gal(b1-4)GlcNAc(b1-6)]Gal(b1-4)GlcNAc. The essentials: as §1
The target in assay [15] is Gal(b1-4)GlcNAc(b1-3)[GlcNAc(b1-6)]Gal(b1-4)GlcNAc. Summed up:
as §1

Assay [16] concerns the target Gal(b1-4)GlcNAc(b1-6)Gal(b1-4)GlcNAc. Summed up: as §1
For assay [17], the target named is Gal(b1-4)GlcNAc(b1-6)GalNAc. Summed up:
as §1

Assay [18] has as its target Gal(b1-4)GlcNAc(b1-6)[Gal(b1-3)]GalNAc. The essentials:
as §1

In assay [19] the target is Gal(b1-4)GlcNAc(b1-6)[Gal(b1-4)GlcNAc(b1-3)]GalNAc. Summed up: as §1
Another assay has as its target Gal(b1-4)GlcNAc6P. The essentials:
as §1

The target of another assay is Gal(b1-6)Gal. Summed up: as §1
Another assay addresses Gal3S(b1-3)GalNAc. Summed up: as §1
The target of the next assay is Gal3S(b1-3)GlcNAc. Summed up: as §1

B1: CFEM-PPl (Pichia pastoris), F2QPV1 (protein)
chain: AVATPPACLLACAAEVVKESSDCDALNNIQCICENEGSAIHACLESTCPDGLSSTALQSFEDVCESVGTEANLDE
As for B1, the “glycan array binding signal (z-score)” value is 0.111 in assay [1]; 0.054 in assay [2]; 0.208 in assay [3]; 0.068 in assay [4]; -0.06 in [5]; 0.169 in [6]. For the same molecule, the “glycan array binding signal (z-score)” value in assay [7] is 0.228; in assay [8] it was -0.058; in assay [9], 0.105; in assay [10] it was 1.03; in assay [11] it was -0.205; in [12], -0.054. The “glycan array binding signal (z-score)” value is -0.296 in assay [13]; 0.238 in assay [14]; -0.226 in [15]; 0.761 in assay [16]; 0.009 in assay [17]; 1.36 in assay [18]. In addition, the “glycan array binding signal (z-score)” value is 0.459 in assay [19]; -0.187 with Gal(b1-4)GlcNAc6P; 0.626 in the assay with Gal(b1-6)Gal; -0.378 with Gal3S(b1-3)GalNAc; -0.178 with Gal3S(b1-3)GlcNAc.
